Over roughly 33,000 sequences, “E-score (-0.5 to 0.5)” has its median near -0.017; the highest 2% begin near 0.3. This is one part of the list.
Molecular target: T1, Sut1 (UniProt P53032)
T1 sequence: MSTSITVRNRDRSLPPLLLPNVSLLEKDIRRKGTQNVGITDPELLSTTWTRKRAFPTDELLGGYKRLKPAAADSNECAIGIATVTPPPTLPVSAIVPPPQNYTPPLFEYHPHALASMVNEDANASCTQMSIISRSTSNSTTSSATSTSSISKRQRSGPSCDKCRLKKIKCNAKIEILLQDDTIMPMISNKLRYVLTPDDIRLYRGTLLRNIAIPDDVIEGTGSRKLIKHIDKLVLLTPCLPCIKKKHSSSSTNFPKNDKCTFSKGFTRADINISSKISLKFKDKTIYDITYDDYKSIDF
Test: PBM E-score (8-mer binding enrichment) (E-score (-0.5 to 0.5)); higher = stronger / more preferred TF binding; most listed sequences are background and not binding sites
Settings: protein concentration: 200 nM; construct: GST-full length
Outline: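 The E-score, a modified Wilcoxon-Mann-Whitney statistic, was computed by the Universal PBM Analysis Suite for every ungapped eight-base word pooled with its reverse complement. Scans behind it were normalised with masliner after bound GST-tagged yeast transcription factors were detected with fluorescent anti-GST. The proteins, at about 100-200 nM, had been applied to universal all-10-mer Agilent arrays made double-stranded by primer extension.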

Row | Sequence | PBM E-score
1 | ACGCTATC | -0.0585
2 | AGTAGACG | 0.0314
3 | AAGAGCTT | 0.0765
4 | GTAACGGA | 0.329
5 | GTAAGGAC | -0.256
6 | ACAGGACG | -0.00258
7 | GTTTAAAC | 0.31
8 | AACTGGAG | -0.112
9 | CCGGTACC | -0.0143
10 | AACGTATC | -0.0743
11 | ATAGAAAC | 0.195
12 | AGGTCTGC | -0.139
13 | CCAGCAGG | -0.299
14 | GTGCGGTA | -0.137
15 | AGTAGAGC | -0.177
16 | AGCTCAAT | 0.111
17 | CTTACTCA | -0.0535
18 | AACTTCGC | -0.047
19 | CTGCGCCA | -0.15
20 | ATAATGAC | -0.0339
21 | TGTCCGAA | 0.428
22 | AGGTTGAG | -0.157
23 | AACCTCTA | -0.0278
24 | CTGTTTTC | 0.101
25 | ACAGGAGC | -0.103

Row | Sequence | PBM E-score
26 | AGTCTGTA | -0.146
27 | CAGTCGAC | -0.0872
28 | ATAGACCC | -0.0627
29 | GATGAAGA | 0.0267
30 | AGAGTGGC | -0.259
31 | GGCTCCAA | 0.00981
32 | ATCGCATC | -0.123
33 | GAGCCCGC | -0.146
34 | CCAAATCA | -0.0266
35 | CACGGAGC | 0.354
36 | GGGAACTA | -0.0295
37 | GGACGTAA | -0.136
38 | ACCCATGA | -0.124
39 | ACCCCCGA | -0.118
40 | GCATACCA | -0.197
41 | TGGATCAA | -0.0581
42 | ACGGATGC | 0.021
43 | CTTCTGTC | -0.0909
44 | CTCTGACC | -0.259
45 | CGCATTTC | 0.0887
46 | ACATGTAC | -0.109
47 | CGGGAAAG | 0.0751
48 | ACGGTCAT | 0.0457
49 | TAACCACA | 0.0707
50 | GTAGGTAA | 0.053

Row | Sequence | PBM E-score
51 | ATAACGCA | 0.00177
52 | CCGGAAAG | 0.276
53 | TGTAAACA | 0.217
54 | CATCGCTA | -0.0159
55 | GCTCGTCA | -0.241
56 | GGCTAACC | -0.134
57 | GAAGAAAC | 0.177
58 | CTAATGTA | 0.118
59 | ACAGCTAC | -0.0838
60 | AAACTAAA | 0.222
61 | AAAGGAGA | -0.00755
62 | AAGGATAA | 0.0154
63 | GCTTGACC | -0.131
64 | GGAAGCGA | 0.0434
65 | ACCGGCTA | -0.126
66 | ATGTCCGG | 0.451
67 | AGAAACGC | 0.0494
68 | AAAGACTC | 0.026
69 | CCATGCCG | -0.142
70 | GTGTTAAA | 0.0268
71 | ATATTAGA | 0.177
72 | GGCAGGTA | -0.154
73 | CCAAGGTA | -0.171
74 | AATGGAGG | -0.0978
75 | AGATATAC | 0.0915

Row | Sequence | PBM E-score
76 | ATAGAGCC | -0.12
77 | ACAGGAGG | -0.159
78 | GCGACGGA | 0.183
79 | ATATCGTA | 0.0812
80 | GTTAGGTA | 0.133
81 | AAGGACAG | 0.0195
82 | CTGCGAAC | -0.0402
83 | ATAATTAC | 0.283
84 | ACGATAAT | 0.218
85 | ACATAATG | 0.178
86 | GTCTTCCA | -0.0496
87 | GCACGTAA | -0.216
88 | CGCTATAG | -0.272
89 | ATCCGCAG | 0.0529
90 | ACAACTAC | 0.22
91 | GTAGTAAA | 0.2
92 | CTATCAAG | -0.00093
93 | GGGGCCTA | -0.357
94 | GTCTTCAC | 0.00144
95 | AAACCCCA | -0.123
96 | ACGCGCGC | 0.05
97 | CTATCAGA | -0.112
98 | CTGTGGTC | -0.138
99 | AGCATTAA | -0.0218
100 | TGTATTAA | 0.244

Row | Sequence | PBM E-score
101 | ACGACCAG | -0.103
102 | AGGCTGGG | -0.307
103 | ACCTCTAA | -0.0713
104 | CGATATTC | -0.0958
105 | AATACATG | 0.256
106 | CTGTGATA | -0.0237
107 | ATCCGAAT | 0.32
108 | CGAAACTC | 0.12
109 | ATAGACTG | -0.161
110 | AGCAGGAA | -0.143
111 | AAGGATCT | -0.0932
112 | CCGGAACG | 0.202
113 | ACCGATTC | -0.153
114 | GCTCGTAC | -0.111
115 | GGCGGTTA | -0.0713
116 | GCAAGAGA | -0.196
117 | AGTCAGGC | -0.0218
118 | GAATCATC | 0.0169
119 | CATCTGAA | 0.0794
120 | CGTCGTCA | -0.139
121 | TCGAACCA | -0.154
122 | AAAGCCGA | -0.0256
123 | CCTACCTA | 0.00587
124 | CCGTGGGA | -0.132
125 | CAGAGCCC | -0.0247

Row | Sequence | PBM E-score
126 | ACCCAGCC | -0.273
127 | CATGATCC | -0.0268
128 | GCGCCGAA | 0.111
129 | TAGTTAAA | 0.278
130 | GGCGGTCA | -0.181
131 | GAGGGTCC | -0.0561
132 | AACTCATG | 0.0383
133 | CGTATGTA | 0.054
134 | TACTCACA | 0.03
135 | ACGGCACG | -0.0976
136 | AATTGCAG | 0.0512
137 | GTCGAGAC | -0.12
138 | TTGCCCAA | -0.061
139 | CGAGCGAA | -0.0328
140 | CGTCGTAG | -0.104
141 | CTGAACTA | 0.00909
142 | AGTCCGTG | 0.431
143 | CCTTGACC | -0.0469
144 | GGCGAGAA | 0.023
145 | GCCGTGTA | -0.196
146 | TAGTCAGA | 0.00987
147 | CGCCCATA | -0.113
148 | CACATAAA | 0.105
149 | ATTGATAC | 0.199
150 | CAACACTC | 0.154

Row | Sequence | PBM E-score
151 | GGTGTGAC | -0.332
152 | CATTCTCG | -0.032
153 | CCATGGGC | -0.0948
154 | GAGTCAAA | -0.0658
155 | AGCTAAGA | -0.0341
156 | ACTGTTGC | 0.0734
157 | GCCGACCC | -0.287
158 | ACGTCATC | -0.187
159 | GGAGAGGA | -0.189
160 | AGCAAATC | 0.142
161 | TAAATGTA | 0.23
162 | GAGGGTTA | -0.0895
163 | CCAATCCG | 0.00675
164 | AGGGTCAC | -0.166
165 | CCCCGCAC | -0.16
166 | AATGTAAC | 0.00444
167 | AAATCTCA | 0.00981
168 | CAGAATAC | 0.0451
169 | TGACCGCA | -0.187
170 | ATCTAGAC | -0.0479
171 | CTCGAAGA | -0.101
172 | CATCTCAA | 0.117

Source: the supplement of paper PMC3334620
